# Laboratory results from PubChem BioAssay AID588855 (National Center for Advancing Translational Sciences (NCATS), 2011).
# Where “and” joins values, the source holds several entries; their conditions need not be identical. Identical values can stand only once. In all, about 410,000 compounds went through this assay and about 5,000 (1.2%) were called active. The inconclusive results got no clear call from the source; some entries with a clear call stand among them for comparison. Calls come from the whole dose curve; as a rule, active = well fitted inhibition curve with a large enough effect; inconclusive = small, poorly fitted or top-dose-only effect; inactive = no such curve, though single readings can be large or run the other way. Potencies of inconclusive entries are doubtful fits and often do not repeat.
# Test: qHTS for Inhibitors of TGF-b; note: nearly all actives have a fitted effect of over 65% in size
# Details: HepG2 CAGA-GFP TGF-b/SMAD3 reporter, GFP fluorescence, 18 h, TGF-beta stimulated, 500 pg/mL final; series mostly up to 46.1 µM; activity, negative = inhibition: at the top concentration
# In short: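 Smad-responsive CAGA-GFP expression was quantified in HEPG2 cells exposed to compounds and 500 pg/mL final TGF-beta for 18 h at 37 degrees C; unstimulated wells defined full inhibition.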
# % is set by controls: 0 for no effect and ±100 for the full control effect; potency is the fitted concentration of half-maximal effect; tags give direction and shape of the fitted curve.
Structure (SMILES),"activity, negative = inhibition",Potency
O=C(NCCc1ccccc1)/C(=C\c1cccc([N+](=O)[O-])c1)NC(=O)c1ccco1,inactive: -7.64%,
CCC(C)(C)NC(=O)C(c1ccc(F)cc1)N(Cc1ccco1)C(=O)c1snc(C(N)=O)c1N (stereo not drawn),inactive: 10.4%,
CC1=Nc2cc(C(=O)NCc3ccc(C)cc3)ccc2Sc2ccc(Cl)cc21,inactive: -12.7%,
CCCCn1c(NC(=O)c2ccccc2Cl)c(C#N)c2nc3ccccc3nc21,,"inconclusive: 10 µM [inhibitor, partial curve, poor fit]"
Cc1ccc2nc(C3CCCCC3)c(Cc3cccc(F)c3)n2c1,,"inconclusive: 8.91 µM [inhibitor, partial curve, poor fit]"
Cc1csc(NC(=O)CSc2ncnc3c2cnn3-c2ccccc2Cl)n1,,"inconclusive: 25.1 µM [inhibitor, single point]"
CSc1cccc(NC(=O)CNC(=O)c2ccc3c(c2)OCO3)c1,,"inconclusive: 6.31 µM [inhibitor, single point]"
CN(Nc1cccc(Cl)c1)c1cccc(Cl)c1,,"inconclusive: 35.5 µM [inhibitor, single point]"
CC1CC(C(F)(F)F)n2nc(C(=O)O)cc2N1 (stereo not drawn),,"inconclusive: 5.62 µM [inhibitor, single point]"
COC(=O)C(OC(=O)c1ccccc1)C(C)Br (stereo not drawn),inactive: 1.99%,
O=C(Nc1cccc(S(=O)(=O)N2CCCC2)c1)c1ccncc1,inactive: -14.5%,
CCc1nnc(NC(=O)CSc2nc(-c3ccccc3)nc3ccccc23)s1,,"inconclusive: 0.794 µM [inhibitor, full curve, poor fit]"
CCN(CC)CCC(c1cc(OC)c(OC)c(OC)c1)c1c(OC)cc(OC)c2c(-c3ccccc3)cc(=O)oc12 (stereo not drawn),,"inconclusive: 35.5 µM [inhibitor, single point] and inconclusive: 22.4 µM [inhibitor, single point]"
CCC(C)N(C(=O)CSc1nnc(C)n1C)C1CCS(=O)(=O)C1 (stereo not drawn),inactive: -13.7%,
COc1ccc(CCNCC(C)c2ccccc2)cc1 (stereo not drawn),,"inconclusive: 6.31 µM [inhibitor, single point]"
CCOC(=O)C1=C(N)c2ccccc2CC1C1CCCC1 (stereo not drawn),,active: 12.6 µM
COc1ccc(C(=O)Nc2cc(-c3ccccc3)nn2-c2ccccc2)cc1,,"inconclusive: 2.82 µM [inhibitor, single point]"
Cc1cc(C(F)F)n2nc(C(=O)Nc3ccc(S(=O)(=O)NC45CC6CC(CC(C6)C4)C5)cc3)nc2n1,,"inconclusive: 35.5 µM [inhibitor, single point]"
CN1CC(=O)N/C1=N\C(=O)Nc1ccc(O)cc1,inactive: -9.52%,
O=C(COCc1cc(-c2cccs2)on1)Nc1cc(Cl)ccc1O,,"inconclusive: 5.01 µM [inhibitor, single point]"
O=C(OCC(=O)N1CCN(C(=O)c2ccco2)CC1)c1cccc(S(=O)(=O)N2CCc3ccccc32)c1,,"inconclusive: 6.31 µM [inhibitor, partial curve, poor fit]"
O=C(C1CCC(CNS(=O)(=O)c2ccc(Br)s2)CC1)N1CCN(c2ccccc2Cl)CC1 (stereo not drawn),inactive: -23%,

Structure (SMILES),"activity, negative = inhibition",Potency
COc1ccc(NC(=O)Cn2c(=O)n(-c3cccc(C)c3)c(=O)c3c2c2cc(C)ccc2n3C)cc1Cl,inactive: -17.3%,
Cc1ccc(-n2nnnc2SCC(=O)N(CC(C)C)c2c(N)n(CC(C)C)c(=O)[nH]c2=O)cc1,inactive: -0.584%,
CS(=O)(=O)Nc1ccc(C2=NN(S(=O)(=O)c3ccc(F)cc3)C(c3ccco3)C2)cc1 (stereo not drawn),,"inconclusive: 35.5 µM [inhibitor, single point]"
O=C(CCNC(=O)C1CCN(S(=O)(=O)c2ccc(F)cc2)CC1)NCc1cccc(Cl)c1,inactive: -21.5%,
CS(=O)(=O)N1CCc2cc(C(=O)Nc3ccc(Cl)c(C(F)(F)F)c3)ccc21,,"inconclusive: 0.794 µM [inhibitor, full curve, poor fit]"
CCOc1c(Br)cc(CNc2ccc(N3CCN(C(C)=O)CC3)cc2)cc1OC,,"inconclusive: 6.31 µM [inhibitor, partial curve, poor fit]"
CCS(=O)(=O)N1CCC(c2nc(-c3ccc(C)cc3)no2)CC1,inactive: -1.59%,
CCN(c1cccc(C)c1)S(=O)(=O)c1ccc(-c2cc(C)no2)s1,,"inconclusive: 11.2 µM [inhibitor, partial curve, poor fit]"
COC(=O)C(=Cc1ccc(OCc2ccc([N+](=O)[O-])cc2)c(OC)c1)C(=O)OC,,"inconclusive: 31.6 µM [inhibitor, single point]"
Cn1c(=O)c2[nH]c(CCCCCCCCc3nc4ccccc4[nH]3)nc2n(C)c1=O,,"inconclusive: 4.47 µM [inhibitor, partial curve, poor fit]"
CC1(C)CC(=O)C2=C(C1)OC(N)=C(C#N)C2c1ccoc1 (stereo not drawn),inactive: 0.879%,
Clc1cccc(-c2nc(-c3ccc(-c4nn[nH]n4)cc3)no2)c1,,"inconclusive: 5.62 µM [inhibitor, single point]"
Cc1cccc(-n2ccnc2SCC(=O)Nc2ccc(F)cc2F)c1C,inactive: -3.01%,
Cc1ccc(C)c(CN2CCC(CNC(=O)Nc3ccc(Br)cc3F)CC2)c1,,"inconclusive: 28.2 µM [inhibitor, single point] and inconclusive: 35.5 µM [inhibitor, single point]"
COc1cccc(-c2cnc3c(NC=O)cc(-c4ccc(S(C)(=O)=O)cc4)cn23)c1,,active: 1.78 µM
CCOc1cc(/C=N/NC(=O)c2ccccc2-n2cccc2)ccc1O,inactive: -0.147%,
COc1ccc(S(=O)(=O)Nc2cccc3cccnc23)cc1,,active: 7.08 µM
CC(=O)Nc1ccc(C(=O)CCl)cc1,,"inconclusive: 35.5 µM [inhibitor, partial curve, poor fit]"
CCOC(=O)C1(CCOc2ccccc2)CCN(Cc2cccc(OC)c2)CC1,,"inconclusive: 25.1 µM [inhibitor, single point]"
CCCNC(=O)C1(C)CCCN(C(=O)COCc2ccccc2)C1 (stereo not drawn),inactive: 14%,
O=C(NNS(=O)(=O)c1ccc(Br)cc1)c1sccc1-n1cccc1,,"inconclusive: 20 µM [inhibitor, single point]"
